These results are taken from article PMC4336329 (PLoS ONE, 2015).

SMILES strings stand for the structures. The campaign covered roughly 310,000 compounds. About 2,200 (0.71%) showed an effect of 50% or more. Effects have a minus sign here. The list shows a part of the results.

The target of this assay is human ether-à-go-go-related gene (hERG) potassium channel (human, UniProt Q12809). The assay can be described thus: primary screen, population patch clamp on CHO cells stably expressing hERG.
Sequence of human ether-à-go-go-related gene (hERG) potassium channel (Q12809 whole entry, looked up): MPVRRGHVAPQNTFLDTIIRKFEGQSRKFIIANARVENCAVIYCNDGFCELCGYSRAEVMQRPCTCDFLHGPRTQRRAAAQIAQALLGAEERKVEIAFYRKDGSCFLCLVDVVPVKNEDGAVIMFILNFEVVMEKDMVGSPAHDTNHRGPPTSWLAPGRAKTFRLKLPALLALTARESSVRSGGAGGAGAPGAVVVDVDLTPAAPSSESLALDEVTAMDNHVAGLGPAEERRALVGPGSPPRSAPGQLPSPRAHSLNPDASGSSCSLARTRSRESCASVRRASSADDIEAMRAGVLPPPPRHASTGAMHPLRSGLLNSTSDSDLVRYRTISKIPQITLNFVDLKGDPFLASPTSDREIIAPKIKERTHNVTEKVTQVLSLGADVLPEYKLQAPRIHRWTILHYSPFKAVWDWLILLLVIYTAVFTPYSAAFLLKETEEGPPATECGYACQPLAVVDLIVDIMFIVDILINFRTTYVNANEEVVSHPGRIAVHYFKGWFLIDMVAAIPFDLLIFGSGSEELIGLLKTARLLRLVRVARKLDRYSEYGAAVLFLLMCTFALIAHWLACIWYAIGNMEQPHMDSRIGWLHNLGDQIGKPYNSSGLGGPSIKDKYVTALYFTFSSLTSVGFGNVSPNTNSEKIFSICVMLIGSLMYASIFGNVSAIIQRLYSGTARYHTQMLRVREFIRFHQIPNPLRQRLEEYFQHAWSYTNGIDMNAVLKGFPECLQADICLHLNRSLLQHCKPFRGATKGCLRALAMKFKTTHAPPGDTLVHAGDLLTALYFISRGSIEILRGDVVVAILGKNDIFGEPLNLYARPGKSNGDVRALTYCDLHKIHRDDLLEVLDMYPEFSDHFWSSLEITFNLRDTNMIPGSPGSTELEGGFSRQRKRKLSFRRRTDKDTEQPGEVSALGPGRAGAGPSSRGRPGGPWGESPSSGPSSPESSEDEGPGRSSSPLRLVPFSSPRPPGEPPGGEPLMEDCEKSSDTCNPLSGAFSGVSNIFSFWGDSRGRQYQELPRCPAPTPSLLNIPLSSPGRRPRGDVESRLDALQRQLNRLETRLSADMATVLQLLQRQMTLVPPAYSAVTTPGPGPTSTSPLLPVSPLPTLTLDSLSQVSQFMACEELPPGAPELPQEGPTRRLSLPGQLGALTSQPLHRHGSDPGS
Turning to `C=CCC(NCc1ccccc1)c1ccccc1` (stereo not drawn), the “hERG current change (%, negative = inhibition) at 1uM” value stood at 5.56%.
With `CC1(C)Cc2cccc(OCC(=O)N3CCN(c4ccccc4Cl)CC3)c2O1`, the “hERG current change (%, negative = inhibition) at 1uM” value was determined as 0.729%.
Turning to `O=C(CCCN1C(=O)c2ccccc2C1=O)N1CCCCC1`, the “hERG current change (%, negative = inhibition) at 1uM” value worked out at 11.8%.
On to `CN(C)Cc1c(O)ccc2occ(C(=O)c3ccccc3)c12`, for which the “hERG current change (%, negative = inhibition) at 1uM” value was -16.4%.
Regarding `O=C(C1CCCO1)N1CCN(c2ccccn2)CC1` (stereo not drawn), the “hERG current change (%, negative = inhibition) at 1uM” value was found to be 6.36%.
As to `CC(C)C(=O)Nc1ccccc1N1CCN(C(=O)c2ccccc2)CC1`, the “hERG current change (%, negative = inhibition) at 1uM” value was 5.76%.
On to `CCCc1nn2c(=O)cc(CSCC(=O)Nc3nnc(C(C)C)s3)nc2s1`, for which the “hERG current change (%, negative = inhibition) at 1uM” value is 6.33%.
The value for `CCOC(=O)C1CCN(C2=NC(=O)/C(=C/c3ccc(Cl)cc3)S2)CC1` was -13.1%; that for `CS(=O)(=O)N(CC(=O)Nc1ccc(Br)cc1)C1CCCCC1` was 6%; that for `COc1ccc(/C=N/NC(=O)CSc2n[nH]c(=O)[nH]c2=O)cc1` was 12.5%.
Turning to `CCC(=O)N1CCc2cc(S(=O)(=O)CCC(=O)Nc3ccc(CC)cc3)ccc21`, the “hERG current change (%, negative = inhibition) at 1uM” value is recorded as 18.2%.
In the case of `CCN(CC(=O)NCc1cccs1)C(=O)C1CC(=O)N(c2ccc(OC)cc2OC)C1` (stereo not drawn), the “hERG current change (%, negative = inhibition) at 1uM” value is reported as 8.27%.
In the case of `Clc1ccc(Cl)c(-c2nc(-c3ccncc3)no2)c1`, the “hERG current change (%, negative = inhibition) at 1uM” value is reported as 15.3%.
In the case of `COCCCn1c(SCc2nnc(-c3ccccc3)o2)nc2sc3c(c2c1=O)CCC3` it was 10.3%; in that of `CNC(=O)c1cc(S(=O)(=O)N(C)C)ccc1Cl`, 1.15%; in that of `COc1cccc(N2CC(NC(=O)c3ccc4ccccc4c3)CC2=O)c1` (stereo not drawn), 5.06%.
In the case of `COc1ccccc1C(=O)C1CCCN(C(=O)c2ccco2)C1` (stereo not drawn), the “hERG current change (%, negative = inhibition) at 1uM” value amounted to 23.9%.
In the case of `CSCCC(NC(=O)c1ccc([N+](=O)[O-])cc1Cl)C(=O)OCC(=O)NC(=O)CN1CCCC1=O` (stereo not drawn) it was 22.1%.
In the case of `COc1cc(N)c(Cl)cc1C(=O)OC(C)C(=O)Nc1cccc(S(=O)(=O)N2CCOCC2)c1` (stereo not drawn), the “hERG current change (%, negative = inhibition) at 1uM” value was determined as 16.1%.
Regarding `CCC(C)NC(=O)C1CCN(S(=O)(=O)c2ccc(Br)s2)CC1` (stereo not drawn), the “hERG current change (%, negative = inhibition) at 1uM” value amounted to 3.49%.
`[Cl-].c1ccc(C[n+]2cccc3c4ccccc4ccc32)cc1`: the “hERG current change (%, negative = inhibition) at 1uM” value is recorded as -2.14%.
For `O=C(NC1CCCC1)c1ccc(Cl)s1`, the “hERG current change (%, negative = inhibition) at 1uM” value was determined as 8.66%.
Take `CCC(=O)Nc1ccc(NC(=O)CCc2ccccc2)cn1`: the “hERG current change (%, negative = inhibition) at 1uM” value is 10.4%.
In the case of `CCCCCCCCNC(=O)C(CCC(=O)OCc1ccccc1)NC(C)=O` (stereo not drawn) it was 6.41%.
Take `Cc1cc(N2CCN(C(=O)c3cccs3)CC2)c(F)cc1[N+](=O)[O-]`: the “hERG current change (%, negative = inhibition) at 1uM” value is -7.39%.
On to `CCOC(=O)c1cnc2ccc(OC)cc2c1NCCN1CCOCC1`, for which the “hERG current change (%, negative = inhibition) at 1uM” value is listed as -13.3%.
For `COc1ccc2c(c1)CCCN2C(N)=O`, the “hERG current change (%, negative = inhibition) at 1uM” value turned out to be 12.3%.
Consider `C=CCNC(=O)CSc1ccc(Cl)cc1`, for which the “hERG current change (%, negative = inhibition) at 1uM” value is given as 13.7%.
In the case of `O=C(NNC(=O)c1cc2ccccc2cc1O)Nc1ccc(F)cc1F`, the “hERG current change (%, negative = inhibition) at 1uM” value came out at 7.74%.
In the case of `O=C1CCCC/C1=C\Nc1ccc(O)cc1` it was 8.6%.
As to `COc1ccc(CNC(=O)CC2Sc3ccccc3NC2=O)cc1` (stereo not drawn), the “hERG current change (%, negative = inhibition) at 1uM” value is recorded as 15.1%.
In the case of `CCOC(=O)C1=NOC2C(=O)N(c3ccc(Cl)cc3Cl)C(=O)C12` (stereo not drawn), the “hERG current change (%, negative = inhibition) at 1uM” value was found to be 12%.
For `COc1ccc(NC(=O)CSc2nnnn2C)cc1`, the “hERG current change (%, negative = inhibition) at 1uM” value is listed as 2.08%.
For the molecule `CC1CCCCC1NC(=O)CN1CCC(O)(c2ccc(F)cc2)CC1` (stereo not drawn), the “hERG current change (%, negative = inhibition) at 1uM” value was -0.99%.
The value for `Cc1ccc(C(=O)NCC(=O)OCCOc2ccccc2Cl)cc1` was 13.4%; that for `COc1ccc(Nc2nc(Nc3ccc(OC)cc3OC)nc(N3CCN(C)CC3)n2)c(OC)c1` was 4.41%.
On to `O=[N+]([O-])c1ccc(OCCOCCOc2ccc([N+](=O)[O-])cc2)cc1`, for which the “hERG current change (%, negative = inhibition) at 1uM” value came out at 3.57%.
In the case of `CC(C)c1ccc(O)c(NC(=S)NC(=O)c2cccnc2)c1` it was 6.8%; in that of `COc1cccc(C(=O)Nc2cc3c(cc2Br)OCCCO3)c1`, 7.86%; in that of `CCCCC1CCC(C(=O)OC(C)C(=O)Nc2ccc(NC(C)=O)cc2)CC1` (stereo not drawn), 10.1%.
Turning to `CC(C)(NO)/C(=N/O)c1cccs1`, the “hERG current change (%, negative = inhibition) at 1uM” value is recorded as -5.45%.
In the case of `COc1ccc(-c2nc(=S)[nH][nH]2)cc1` it was 11.2%.
Take `O=C(Nc1ccc(Br)cc1)C1CC(c2c(F)cccc2Cl)=NO1` (stereo not drawn): the “hERG current change (%, negative = inhibition) at 1uM” value was determined as 3.84%.
As to `S=C(Nc1ccccc1)N1CCN(C(=S)Nc2ccccc2)CC1`, the “hERG current change (%, negative = inhibition) at 1uM” value turned out to be 13.9%.
As for `CCOC(=O)C(=O)Nc1nc(-c2ccc3c(c2)CCN3C(=O)C2CC2)c(C)s1`, the “hERG current change (%, negative = inhibition) at 1uM” value is given as 13.8%.
